The results in this text go back to the antibiotic and cytotoxicity screens of Wong et al. (2023).

The list shows a part of the results.

In the experiment the test system is S. aureus RN4220. The experiment can be described thus: growth inhibition call (relative growth <= 0.2). The conditions noted are these: 50 µM.
As to `O=C1c2ccccc2[C@](Cc2ccccc2I)(C(=O)NCC(F)(F)F)[C@H](c2ccc(CO)cc2)N1C1CCCCC1`, the growth inhibition call was “inactive”. For the compound `COc1cc([C@@H](O)CO)ccc1OS(=O)(=O)O`, the growth inhibition call was “inactive”. As to `CCCNC(=O)N(C)C[C@@H]1Oc2cc(C#Cc3cccc(F)c3)ccc2S(=O)(=O)N([C@@H](C)CO)C[C@H]1C`, the growth inhibition call was “inactive”. Next, `COc1ccc(S(=O)(=O)Nc2ccc3c(c2)C(=O)N([C@@H](C)CO)C[C@H](C)[C@@H](CN(C)S(C)(=O)=O)O3)cc1`: “inactive”; `CCC(=O)N1C[C@]2(C1)CN([C@@H](CO)c1c2c2ccc(cc2n1C)OC)S(=O)(=O)C`: “inactive”.

As to `CC(C)NC(=O)Nc1ccc2c(c1)CC(=O)N([C@H](C)CO)C[C@H](C)[C@@H](CN(C)Cc1ccc(C(=O)O)cc1)O2`, the growth inhibition call is “inactive”. With `CC(C)NC(=O)N(C)C[C@@H]1Oc2ccc(NS(=O)(=O)c3ccccc3)cc2CC(=O)N([C@H](C)CO)C[C@@H]1C`, the growth inhibition call is “inactive”. With `CCCC#Cc1cnc2c(c1)C(=O)N([C@H](C)CO)C[C@@H](C)[C@H](CN(C)C(=O)c1ccc3c(c1)OCO3)O2`, the growth inhibition call is “inactive”.

Consider `COc1ccc(S(=O)(=O)N(C)C[C@@H]2OCCCC[C@@H](C)Oc3ccc(NS(C)(=O)=O)cc3C(=O)N([C@H](C)CO)C[C@@H]2C)cc1`, for which the growth inhibition call is “inactive”. Next, `COc1ccc(CN(C)C[C@H]2OCCCC[C@@H](C)Oc3ccc(NC(=O)NC(C)C)cc3C(=O)N([C@@H](C)CO)C[C@@H]2C)cc1`: “inactive”. Regarding `C[C@@H]1CN([C@@H](C)CO)C(=O)Cc2cc(NC(=O)Nc3ccccc3)ccc2O[C@@H]1CN(C)Cc1ccc(-c2ccccc2)cc1`, the growth inhibition call was “inactive”. In the case of `C[C@H]1CN([C@H]2C[C@@H](O)[C@@H](CO)O2)C(=O)NC1=O`, the growth inhibition call was “inactive”. In the case of `Cc1noc(C)c1S(=O)(=O)Nc1ccc2c(c1)C(=O)N([C@H](C)CO)C[C@@H](C)[C@H](CN(C)S(=O)(=O)c1ccc(F)cc1)O2` it was “inactive”; in that of `C[C@H](CO)N1C[C@H](C)[C@H](CN(C)S(C)(=O)=O)Oc2ncc(C#Cc3cccnc3)cc2C1=O`, “inactive”.

In the case of `C[C@@H]1CCCCO[C@H](CN(C)Cc2ccc(Cl)c(Cl)c2)[C@@H](C)CN([C@@H](C)CO)C(=O)c2cc(NC(=O)Nc3ccc4c(c3)OCO4)ccc2O1`, the growth inhibition call is “inactive”. Turning to `Cc1ccc(S[C@]2(C(=O)NC3CC3)CC(=O)N(Cc3cc(C(F)(F)F)cc(C(F)(F)F)c3)[C@@H]2c2ccc(CO)cc2I)cc1`, the growth inhibition call was “inactive”. `Cc1noc(C)c1S(=O)(=O)N(C)C[C@@H]1Oc2ccc(NC(=O)Nc3ccccc3)cc2CC(=O)N([C@@H](C)CO)C[C@@H]1C`: the growth inhibition call is “inactive”. Next, `C[C@H]1COC(=O)[C@@H](CC(=O)OC(C)(C)C)CC=CC[C@@H](CC(=O)N[C@@H](CO)Cc2ccccc2)C(=O)N1`: “inactive”; `Cc1ccc(S[C@]2(C(=O)NC(C)C)CC(=O)N(C3CCCCC3)[C@@H]2c2ccc(CO)cc2I)cc1`: “inactive”; `C[C@@H]1CN([C@@H](C)CO)C(=O)Cc2cc(NC(=O)C3CC3)ccc2O[C@H]1CN(C)S(=O)(=O)c1ccccc1`: “inactive”. `CC(=O)OC1CC2CCC1(C)C2(C)C` (stereo not given): the growth inhibition call was “inactive”. Regarding `CCN(CC)C(=O)[C@@H]1C[C@@H](N)CN1S(=O)(=O)N1CCCCCC1`, the growth inhibition call is “inactive”.

With `COc1ccc2c(c1)OC1COc3cc(OC)c(OC)cc3C1C2=O` (stereo not given), the growth inhibition call is “inactive”. Take `C[C@@H]1CN([C@H](C)CO)C(=O)c2cc(NS(C)(=O)=O)ccc2O[C@@H]1CN(C)C(=O)Nc1ccc2c(c1)OCO2`: the growth inhibition call was “inactive”.

For `C[C@@H]1CN([C@@H](C)CO)C(=O)c2cc(NS(=O)(=O)c3ccccc3)ccc2O[C@@H](C)CCCCO[C@H]1CN(C)S(=O)(=O)c1cn(C)cn1`, the growth inhibition call is “inactive”. In the case of `COc1ccc(C#Cc2ccc3c(c2)[C@]2(C(=O)N3)[C@H](C(=O)O)[C@H]3C(=O)O[C@H](c4ccccc4)[C@H](c4ccccc4)N3[C@@H]2c2ccccc2OCCO)cc1` it was “inactive”. In the case of `C[C@H]1CN([C@@H](C)CO)C(=O)c2cc(Br)cnc2O[C@H]1CN(C)C(=O)Nc1ccc(F)cc1` it was “inactive”; in that of `COc1ccc(S(=O)(=O)N(C)C[C@H]2OCCCC[C@H](C)Oc3ccc(NC(=O)Nc4ccc(C(F)(F)F)cc4)cc3C(=O)N([C@H](C)CO)C[C@@H]2C)cc1`, “inactive”; in that of `C[C@@H]1CCCCO[C@@H](CN(C)C(=O)c2ccncc2)[C@H](C)CN([C@H](C)CO)C(=O)c2cc(NS(=O)(=O)c3cn(C)cn3)ccc2O1`, “inactive”.

Regarding `CC(C)(CO)[C@@H](O)C(=O)NCCC(=O)NCCSSCCNC(=O)CCNC(=O)[C@H](O)C(C)(C)CO`, the growth inhibition call is “inactive”. Next, `CO[C@@H]1CN(C)C(=O)c2ccc(NS(=O)(=O)c3cn(C)cn3)cc2OC[C@@H](C)N(CCC(F)(F)F)C[C@H]1C`: “inactive”. Next, `O=C([C@H]1CCCO1)N1CCNCC1`: “inactive”; `C[C@H](CO)N1C[C@H](C)[C@H](CN(C)Cc2ccncc2)Oc2c(NC(=O)C3CCOCC3)cccc2C1=O`: “inactive”.

With `Cc1noc(C)c1S(=O)(=O)Nc1ccc2c(c1)C(=O)N([C@H](C)CO)C[C@H](C)[C@@H](CN(C)Cc1ccccc1)O2`, the growth inhibition call is “inactive”. As for `Cc1[nH]c(=O)[nH]c(=O)c1S(=O)(=O)N1CCN(c2ccccc2)CC1`, the growth inhibition call is “inactive”.

Consider `C[C@@H]1CN([C@H](C)CO)C(=O)c2cc(NC(=O)CCCCCC(=O)Nc3ccccc3N)ccc2O[C@@H](C)CCCCO[C@@H]1CN(C)C(=O)C1CCCCC1`, for which the growth inhibition call was “inactive”. Next, `O=C(C[C@H]1CC[C@H]2[C@@H](COC[C@@H](O)CN2S(=O)(=O)c2cccc(Cl)c2)O1)NCc1ccc2c(c1)OCO2`: “inactive”. With `CO[C@@H]1CN(C)C(=O)c2cc(NC(=O)C3CCOCC3)ccc2OC[C@H](C)N(Cc2cccnc2)C[C@@H]1C`, the growth inhibition call was “inactive”. Regarding `O=C1NCC(=O)N2[C@@H]1C[C@@H](C(=O)O)[C@H]2c1ccc(O)cc1`, the growth inhibition call is “inactive”. For the compound `N#C[C@H](c1ccccn1)N1CCOCC1`, the growth inhibition call was “inactive”.
